# In article PMC10668032:
# The other results are listed elsewhere or left out. At the low end of the ranking the order means little.
# Biological target: SIX1 homeodomain (reference allele) (UniProt Q15475)
# Assay: universal protein binding microarray
# Settings: Universal all-10-mer PBM (8x60K, AMADID 030236), 300 nM GST-tagged protein, Alexa Fluor 488 anti-GST; buffer, salt, pH and temperature not stated; high values mean tight binding; most listed sequences are background and not binding sites; double strand, one strand shown
row,Sequence,binding signal
1,ATCTTTCG,0.087 E-score
2,ACTCTCAG,-0.268 E-score
3,GGTACGAA,0.0404 E-score
4,ACTTGTTC,-0.192 E-score
5,CGCGGCAC,-0.185 E-score
6,CCGTGCTC,-0.0416 E-score
7,CGTTCTTA,-0.103 E-score
8,CAGCATGA,-0.0566 E-score
9,AACCTTTG,-0.153 E-score
10,CATGTTGG,-0.0797 E-score
11,GTCAAGCA,-0.0588 E-score
12,CCTTCTCC,0.0483 E-score
13,CACAGTGC,0.038 E-score
14,CTTCCGGC,-0.134 E-score
15,GCCCTCAC,-0.152 E-score
16,GCCGATTA,0.105 E-score
17,CCCGCCTA,0.163 E-score
18,CGATGGCG,-0.21 E-score
19,ATTAAGCG,0.0171 E-score
20,CGAAGGAG,0.0417 E-score
21,AAGTAACG,-0.264 E-score
22,ACTCGGAG,0.0012 E-score
23,TCATATAA,0.0363 E-score
24,ATATCTAA,0.316 E-score
25,CGAATTCG,-0.348 E-score

row,Sequence,binding signal
1,CCGGGCCG,0.012 E-score
2,CTGCACTA,0.0182 E-score
3,TCTCTCAA,0.00178 E-score
4,ATCCCTGG,0.312 E-score
5,AGGTTCGG,0.0563 E-score
6,AGCGAATC,-0.127 E-score
7,TGCGGCAA,-0.201 E-score
8,ACGCCCTA,-0.123 E-score
9,GACGTCAA,-0.211 E-score
10,TGTGGTAA,-0.0211 E-score
11,ACTAACTG,-0.166 E-score
12,ACGCGAAC,-0.0486 E-score
13,ACGGGGCG,0.127 E-score
14,GACAAGTA,0.0519 E-score
15,ACGGCAGT,-0.0908 E-score
16,GCAAATCA,-0.177 E-score
17,ACCACCAG,0.11 E-score
18,AGGCAAAA,-0.204 E-score
19,CCAGGCTC,0.00819 E-score
20,CCACTGTC,-0.0355 E-score
21,ACCCTGCT,0.229 E-score
22,CAGGCGAG,0.0177 E-score
23,CAATAATG,-0.0944 E-score
24,GATCGGGC,0.296 E-score
25,ATTGTGAG,0.0432 E-score

row,Sequence,binding signal
1,CGCACGGA,0.0762 E-score
2,ATTTTCAA,-0.234 E-score
3,CAGCGACG,-0.152 E-score
4,GACTAATC,0.0662 E-score
5,CGGCCCTA,-0.081 E-score
6,CTGTATAA,0.102 E-score
7,AACGTCCC,-0.321 E-score
8,CAAAATCC,0.0129 E-score
9,AGGACAAT,-0.0417 E-score
10,ATCGGTCG,0.225 E-score
11,CGCTGCCA,-0.0924 E-score
12,ATCGCGCA,0.0279 E-score
13,CCATGCGC,-0.0241 E-score
14,ATCCCTAA,0.152 E-score
15,ACACGTGC,-0.0118 E-score
16,TAGAGCGA,-0.0893 E-score
17,GGGGCATA,0.0124 E-score
18,CTGAGATC,0.253 E-score
19,CTCTTAAC,-0.23 E-score
20,GCTGCTCA,-0.188 E-score
21,CAGGTAGG,-0.0379 E-score
22,AGCATAAT,-0.00289 E-score
23,ATTGCGTA,0.0128 E-score
24,GAAAGTTA,-0.237 E-score
25,TGCCAAAA,-0.227 E-score

row,Sequence,binding signal
1,AGGCATGG,-0.135 E-score
2,GAACAGGC,-0.105 E-score
3,ATGGTATC,0.469 E-score
4,GCAAGACC,-0.106 E-score
5,CTAAATAC,0.1 E-score
6,GCTATGGA,-0.058 E-score
7,AACTCGAA,-0.348 E-score
8,GATAGCAA,0.202 E-score
9,ACCGTCTC,0.251 E-score
10,GTGTGAGA,0.245 E-score
11,GGAGCTAA,-0.149 E-score
12,GGTGCCCA,-0.215 E-score
13,ATGCCTCA,-0.111 E-score
14,CTACCTGA,0.0294 E-score
15,GCTGACGA,-0.199 E-score
16,GGATCTGA,0.288 E-score
17,GGGTTCCA,0.0272 E-score
18,AAACAACC,-0.291 E-score
19,ATGCTGCC,-0.0369 E-score
20,GGTTCACA,-0.098 E-score
21,AATCAATT,-0.149 E-score
22,AGGTGTGC,0.00258 E-score
23,GAGCGTGA,-0.143 E-score
24,CATCCTTC,0.00573 E-score
25,ATACAGTA,0.321 E-score

row,Sequence,binding signal
1,CAGAAAGC,-0.341 E-score
2,GGACGTGA,-0.214 E-score
3,TGAATACA,-0.0905 E-score
4,CGCAGGCA,0.0956 E-score
5,AAATGATC,0.321 E-score
6,CAAGCACA,-0.159 E-score
7,CGGTTCTA,0.0141 E-score
8,AGGGCTTG,-0.178 E-score
9,AATGCCAT,-0.00585 E-score
10,TTCCCAAA,-0.117 E-score
11,ACCTTCTG,0.0823 E-score
12,GCACCCCC,0.1 E-score
13,GGAACTAA,0.127 E-score
14,CCCGCGTA,0.128 E-score
15,GAACCGTC,-0.179 E-score
16,CATGGACC,-0.217 E-score
17,ATCATAGA,0.229 E-score
18,AACGCGGC,-0.169 E-score
19,AATTAAGG,-0.293 E-score
20,AGTTCATC,-0.121 E-score
21,CGCCGACC,-0.153 E-score
22,AAGTAAGA,-0.154 E-score
23,ACCAAGTG,-0.103 E-score
24,TTACATAA,0.00422 E-score
25,GGGGCTGA,-0.0139 E-score

row,Sequence,binding signal
1,CATGTGTA,0.0184 E-score
2,CGCGGTTC,0.00839 E-score
3,ACGTTCCC,-0.0998 E-score
4,CACACGTC,-0.108 E-score
5,CCCCTGCA,0.0854 E-score
6,CTGTCTGA,-0.0334 E-score
7,AATGAAAA,0.0521 E-score
8,CAGCGTTA,-0.178 E-score
9,GGTTGGAC,0.0291 E-score
10,ATATTTTC,0.199 E-score
11,CAGATATA,0.263 E-score
12,AAAACTGC,-0.174 E-score
13,GGAAAGAC,-0.158 E-score
14,GGGCGCCA,-0.23 E-score
15,AACCTTCG,-0.164 E-score
16,GATATTGC,0.323 E-score
17,ACAGTGGA,0.0419 E-score
18,CTTGTACA,-0.145 E-score
19,AAAAACAT,-0.277 E-score
20,TCGACTCA,-0.0242 E-score
21,AATGTCAA,-0.108 E-score
22,AGATTACA,0.184 E-score
23,TAAATTGA,-0.0794 E-score
24,AGTATGAG,0.0528 E-score
25,ACTTCTAG,-0.121 E-score

row,Sequence,binding signal
1,GAGTACCA,-0.0218 E-score
2,CGAAAAGA,0.0332 E-score
3,CTAAATAA,-0.0107 E-score
4,ATAGCTGA,0.146 E-score
5,GGGAGACA,0.143 E-score
6,CAGCACTA,-0.0859 E-score
7,ATATCGAC,0.379 E-score
8,CAGCAGGG,-0.0493 E-score
9,CGGCATTC,-0.00536 E-score
10,TAACCTGA,-0.0767 E-score
11,AAAGCGCT,-0.286 E-score
12,CTAATGAC,-0.16 E-score
13,AAATTTTC,-0.126 E-score
14,CGACAATC,0.0153 E-score
15,AAAGCGAT,0.223 E-score
16,TGCGTCCA,-0.208 E-score
17,ACTATCCG,0.35 E-score
18,ATCTGTGC,0.153 E-score
19,CAGCCAAA,-0.0882 E-score
20,AGATTAAT,0.2 E-score
21,TCAATCAA,0.0286 E-score
22,ATCCATGC,0.253 E-score
